# Results: PubChem BioAssay AID1745853 (National Center for Advancing Translational Sciences (NCATS), 2022)
# “And” between values parts separate entries of the source, which are not always exact repeats. Equal entries are not always repeated. This is one part of the list. Further columns of the screen follow, without active or inactive calls.
# What was measured:
# Experiment in all cases: Primary Screen for Target Class Profiling of Small Molecule Inhibitors of Methyltransferases
# [1] = target: Glycine N-methyltransferase (Homo sapiens) (UniProt Q14749); conditions: purified enzyme, MTase-Glo SAH luminescence; measured here: GNMT inhibition; at 40 µM; stronger effect = lower value
# Procedure, shortened: (§1)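 Each enzyme was assayed with SAM and its substrate. SAH formation detected by MTase-Glo luminescence; single-point 40 uM screen[…].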
# [2] = target: Guanidinoacetate N-methyltransferase (Homo sapiens) (UniProt Q14353); conditions: purified enzyme, MTase-Glo SAH luminescence; measured here: GAMT inhibition; at 40 µM; stronger effect = lower value
# Procedure, shortened: as §1
# [3] = target: Histamine N-methyltransferase (Homo sapiens) (UniProt P50135); conditions: purified enzyme, MTase-Glo SAH luminescence; measured here: HNMT inhibition; at 40 µM; stronger effect = lower value
# Procedure, shortened: as §1
# [4] = target: Nicotinamide N-methyltransferase (Homo sapiens) (UniProt P40261); conditions: purified enzyme, MTase-Glo SAH luminescence; measured here: NNMT inhibition; at 40 µM; stronger effect = lower value
# Procedure, shortened: as §1
# [5] = target: Phenylethanolamine N-methyltransferase (Homo sapiens) (UniProt P11086); conditions: purified enzyme, MTase-Glo SAH luminescence; measured here: PNMT inhibition; at 40 µM; stronger effect = lower value
# Procedure, shortened: as §1
# % is scaled to controls: 0 for no effect and ±100 for the full control effect.
structure (smiles),measurement,setting,value
CCCCc1cn(CC2CCN(C(=O)c3ccsc3)CC2)nn1,"activity change, negative = inhibition",[1],-3.33%
same,"activity change, negative = inhibition",[2],-1.74%
same,"activity change, negative = inhibition",[3],0.623%
same,"activity change, negative = inhibition",[4],-7.83%
same,"activity change, negative = inhibition",[5],-1.67%
CCN[C@@H]1C[C@H](N)[C@@H](O[C@H]2OC(CN)=CC[C@H]2N)[C@H](O)[C@H]1O[C@H]1OC[C@](C)(O)[C@H](NC)[C@H]1O,"activity change, negative = inhibition",[1],0.722% and -2.13%
same,"activity change, negative = inhibition",[2],-12.7% and 5.28%
same,"activity change, negative = inhibition",[3],-2.2% and 0.1%
same,"activity change, negative = inhibition",[4],-18% and -6.38%
same,"activity change, negative = inhibition",[5],-14.6% and -3.19%
Cc1ccc(CN2C(=O)NC3(CCN(C(=O)c4cccc(Cl)c4)C3)C2=O)cc1 (stereo unspecified),"activity change, negative = inhibition",[1],-1.37%
same,"activity change, negative = inhibition",[2],-1.55%
same,"activity change, negative = inhibition",[3],1.57%
same,"activity change, negative = inhibition",[4],-3.49%
same,"activity change, negative = inhibition",[5],1.49%
COCCN1C(=O)c2c(NC(C)=O)c3cc(OC)ccc3n2CC1(C)C(=O)NC1CCCCC1 (stereo unspecified),"activity change, negative = inhibition",[1],5.82%
same,"activity change, negative = inhibition",[2],0%
same,"activity change, negative = inhibition",[3],10.4%
same,"activity change, negative = inhibition",[4],7.47%
same,"activity change, negative = inhibition",[5],4.31%
O=c1cc(-c2ccc(O)cc2)oc2cc(OC3OC(CO)C(O)C(O)C3O)c(C3OC(CO)C(O)C(O)C3O)c(O)c12 (stereo unspecified),"activity change, negative = inhibition",[2],7.31%
same,"activity change, negative = inhibition",[4],-9.36%
same,"activity change, negative = inhibition",[5],-2.76%
Cc1cccc(CCNC(=O)Cn2c(=O)oc3cc(S(=O)(=O)N4CCCC4)ccc32)c1,"activity change, negative = inhibition",[1],-14.7%
same,"activity change, negative = inhibition",[2],5.64%
same,"activity change, negative = inhibition",[3],-1.68%
same,"activity change, negative = inhibition",[4],-2.9%
same,"activity change, negative = inhibition",[5],-6.14%
COc1ccc(CC(=O)Nc2ccc3c(c2)CN(CCOc2ccccc2)C(=O)C(C)O3)cc1 (stereo unspecified),"activity change, negative = inhibition",[1],-2.15%
same,"activity change, negative = inhibition",[2],0.253%
same,"activity change, negative = inhibition",[3],-5.29%
same,"activity change, negative = inhibition",[4],0.57%
same,"activity change, negative = inhibition",[5],3.62%
O=C(NCc1ccnc2[nH]ccc12)c1cncc(Br)c1,"activity change, negative = inhibition",[1],-9.27%
same,"activity change, negative = inhibition",[2],-10.3%
same,"activity change, negative = inhibition",[3],-10.2%
same,"activity change, negative = inhibition",[4],-14.2%
same,"activity change, negative = inhibition",[5],-8.62%
O=C(C1CC1)N1CCN2C(=O)N(C3CCCCC3)C[C@H]2C1,"activity change, negative = inhibition",[1],-5.82%
same,"activity change, negative = inhibition",[2],-7.85%
same,"activity change, negative = inhibition",[3],-3.3%
same,"activity change, negative = inhibition",[4],-17.6%
same,"activity change, negative = inhibition",[5],-9.33%
COC1CC(O[C@H]2CC[C@@]3(C)C(=CC[C@]4(O)C3[C@H](OC(C)=O)[C@@H](OC(=O)c3ccccc3)[C@]3(C)[C@@H](C(C)=O)CC[C@@]34O)C2)OC(C)C1OC1CC(OC)C(OC2CC(OC)C(OC3OC(C)C(OC4OC(CO)C(O)C(O)C4O)C(OC)C3O)C(C)O2)C(C)O1 (stereo partly specified),"activity change, negative = inhibition",[1],-0.735%
same,"activity change, negative = inhibition",[2],-2.89%
same,"activity change, negative = inhibition",[3],1.84%
same,"activity change, negative = inhibition",[4],-2.54%
same,"activity change, negative = inhibition",[5],3.96%
O=Cc1ccc(-c2cc(C(F)(F)F)ccc2Cl)cc1,"activity change, negative = inhibition",[1],-6.67%
same,"activity change, negative = inhibition",[2],-0.793%
same,"activity change, negative = inhibition",[3],-0.963%
same,"activity change, negative = inhibition",[4],-12%
same,"activity change, negative = inhibition",[5],-12.6%
O=C1NC(=O)C(c2ccccc2)(c2ccccc2)N1,"activity change, negative = inhibition",[1],-2.31%
same,"activity change, negative = inhibition",[2],8.22%
same,"activity change, negative = inhibition",[3],0.727%
same,"activity change, negative = inhibition",[4],-1.49%
same,"activity change, negative = inhibition",[5],9.85%
COc1ccnc(CN2C(=O)NC(CCc3ccccc3)(C3CCNCC3)C2=O)c1 (stereo unspecified),"activity change, negative = inhibition",[1],-3.35%
same,"activity change, negative = inhibition",[2],-4.12%
same,"activity change, negative = inhibition",[3],-1.78%
same,"activity change, negative = inhibition",[4],-8%
same,"activity change, negative = inhibition",[5],-0.114%
CC(C)(O)c1ccccc1CC[C@@H](SCC1(CC(=O)O)CC1)c1cccc(/C=C/c2ccc3ccc(Cl)cc3n2)c1,"activity change, negative = inhibition",[1],-31.8%
same,"activity change, negative = inhibition",[2],-25.3%
same,"activity change, negative = inhibition",[3],-2.73%
same,"activity change, negative = inhibition",[4],-76.3%
same,"activity change, negative = inhibition",[5],-7.83%
CCOC(=O)c1cc2n(n1)CC(C)(C(=O)NCc1ccc(F)cc1)N(c1ccc(OC)cc1)C2=O (stereo unspecified),"activity change, negative = inhibition",[1],0.068%
same,"activity change, negative = inhibition",[2],0%
same,"activity change, negative = inhibition",[3],0.253%
same,"activity change, negative = inhibition",[4],0.57%
same,"activity change, negative = inhibition",[5],-2.15%
Cc1ccccc1CN1C(=O)c2ccc(-c3ccccc3)n2CC1(C)C(=O)NC1CCCCCC1 (stereo unspecified),"activity change, negative = inhibition",[1],-1.69%
same,"activity change, negative = inhibition",[2],-0.601%
same,"activity change, negative = inhibition",[3],-5.03%
same,"activity change, negative = inhibition",[4],-7.68%
same,"activity change, negative = inhibition",[5],-6.58%
CCC(C)NC(=O)c1ccc2c(=O)n(CC(C)C)c3nn(Cc4ccc(F)cc4Cl)c(=O)n3c2c1 (stereo unspecified),"activity change, negative = inhibition",[1],-10.2%
same,"activity change, negative = inhibition",[2],-0.867%
same,"activity change, negative = inhibition",[3],-2.15%
same,"activity change, negative = inhibition",[4],-8.16%
same,"activity change, negative = inhibition",[5],-3.65%
COc1ccc(-c2n[nH]n3c2nc(=O)c2ccc(C(=O)NCCCOC(C)C)cc23)cc1,"activity change, negative = inhibition",[1],-0.185%
same,"activity change, negative = inhibition",[2],0.306%
same,"activity change, negative = inhibition",[3],6.53%
same,"activity change, negative = inhibition",[4],-0.894%
same,"activity change, negative = inhibition",[5],0.828%
COc1cccc(CSc2nnc3n(Cc4ccc(C)cc4)c(=O)c4ccccc4n23)c1,"activity change, negative = inhibition",[1],-2.17%
same,"activity change, negative = inhibition",[2],1.75%
same,"activity change, negative = inhibition",[3],-0.273%
same,"activity change, negative = inhibition",[4],-4.61%
same,"activity change, negative = inhibition",[5],-2.5%
COc1ccc(CCNC(=O)CC(c2cccc(F)c2)c2cn(C)c3ccccc23)cc1OC (stereo unspecified),"activity change, negative = inhibition",[1],-11.4%
same,"activity change, negative = inhibition",[2],-10.1%
same,"activity change, negative = inhibition",[3],-27.7%
same,"activity change, negative = inhibition",[4],-14.5%
same,"activity change, negative = inhibition",[5],-15.3%
CC(C)CCNC(=O)C1(C)Cn2c(c(-n3cccc3)c3ccccc32)C(=O)N1CCc1cccs1 (stereo unspecified),"activity change, negative = inhibition",[1],4.5%
same,"activity change, negative = inhibition",[2],0%
same,"activity change, negative = inhibition",[3],-0.967%
same,"activity change, negative = inhibition",[4],3.91%
same,"activity change, negative = inhibition",[5],0.413%
COc1cc(C(=O)NCCCn2ccnn2)ccc1OC1CCN(C(C)=O)CC1,"activity change, negative = inhibition",[1],-7.36%
same,"activity change, negative = inhibition",[2],-12.4%
same,"activity change, negative = inhibition",[3],-4.52%
same,"activity change, negative = inhibition",[4],-19.6%
same,"activity change, negative = inhibition",[5],-16.7%
CN1Cc2c(N)cccc2C(c2ccccc2)C1 (stereo unspecified),"activity change, negative = inhibition",[1],-12.6%
same,"activity change, negative = inhibition",[2],3.08%
same,"activity change, negative = inhibition",[3],-33.9%
same,"activity change, negative = inhibition",[4],-11.4%
same,"activity change, negative = inhibition",[5],3.94%
C#CCNC(=O)[C@@H]1CCCN1[C@@H](C(=O)NC)c1ccccc1,"activity change, negative = inhibition",[1],-5.74%
same,"activity change, negative = inhibition",[2],-9.08%
same,"activity change, negative = inhibition",[3],-4.68%
same,"activity change, negative = inhibition",[4],-10.7%
same,"activity change, negative = inhibition",[5],-4.33%
COC(=O)c1cc2n(n1)CC(C)(C(=O)NC1CCCCC1)N(Cc1ccc(Cl)cc1)C2=O (stereo unspecified),"activity change, negative = inhibition",[1],0.286%
same,"activity change, negative = inhibition",[2],5.43%
same,"activity change, negative = inhibition",[3],6.26%
same,"activity change, negative = inhibition",[4],-1.96%
same,"activity change, negative = inhibition",[5],0.857%
O=S(=O)(c1ccc2c(c1)CCC2)N1CCC(Cc2nc(-c3ccncc3)n[nH]2)C1 (stereo unspecified),"activity change, negative = inhibition",[1],-5.22%
same,"activity change, negative = inhibition",[2],-2.28%
same,"activity change, negative = inhibition",[3],-2.45%
same,"activity change, negative = inhibition",[4],-8.24%
same,"activity change, negative = inhibition",[5],-4.35%
CN(C)C/C=C/C(=O)Nc1cc2c(Nc3ccc(F)c(Cl)c3)ncnc2cc1O[C@H]1CCOC1,"activity change, negative = inhibition",[2],-63.1%
same,"activity change, negative = inhibition",[4],-70.6%
same,"activity change, negative = inhibition",[5],-76.5%
C/C=C(\C)C(=O)O[C@@H]1[C@@H](C)[C@]2(O)[C@@H]3C=C(C)C(=O)[C@H]3CC(CO)=C[C@H]2C2C(C)(C)[C@@]21OC(=O)C(C)CC (stereo partly specified),"activity change, negative = inhibition",[1],-8.8%
same,"activity change, negative = inhibition",[2],-12.7%
same,"activity change, negative = inhibition",[3],-1.04%
same,"activity change, negative = inhibition",[4],-22.6%
same,"activity change, negative = inhibition",[5],-16.5%
O=C(CCc1ccccc1)c1c(O)c([C@@H]2O[C@H](CO)[C@@H](O)[C@H](O)[C@H]2O)c(O)c([C@@H]2O[C@H](CO)[C@@H](O)[C@H](O)[C@H]2O)c1O,"activity change, negative = inhibition",[1],0%
same,"activity change, negative = inhibition",[2],9.08%
same,"activity change, negative = inhibition",[3],4.6%
same,"activity change, negative = inhibition",[4],-4.18%
same,"activity change, negative = inhibition",[5],5.85%
